Experimental data as given in patent publication US8722849B2, “Polypeptides” (Novo Nordisk A/S, priority 2011, dated 2014).
The name of at least one read-out is uncertain. Starred links: 1 amine or outer side, 2 acyl side, 3 side chain; linkers in the order of their positions; H or OH if unused. Positions of bridges follow the written chain, without caps; N, C: chain ends. Residues, ends and D or L forms follow the SMILES beside them. Groups on a side chain read outwards from the residue. *: point of attachment. C20 diacid = O=C(O)CCCCCCCCCCCCCCCCCCC(=O)*; C18 diacid = O=C(O)CCCCCCCCCCCCCCCCC(=O)*; γGlu = O=C(O)[C@H](CCC(=O)[*:2])N[*:1]; AEEA = NCCOCCOCC(=O)O

Assay: Assay (III) ThT fibrillation assay for physical stability
Assay type: physicochemical
Conditions: ThT fibrillation assay
Summary of the method: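 Freshly prepared formulations, pH-adjusted, with 1 μM ThT; four or eight replicates incubated at 37 °C under 960 rpm orbital shaking. Fluorescence (ex 444/em 485 nm) read every 20 min; […]. Peptide concentration measured by RP-HPLC before and after the run.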

Compound	ThT pH 4.0 recovery	ThT pH 4.0 recovery (%)
CC[C@H](C)[C@H](NC(=O)[C@@H]1CCCN1C(=O)CNC(=O)[C@H](Cc1ccccc1)NC(=O)[C@H](CC(N)=O)NC(=O)[C@H](CC(N)=O)NC(=O)[C@H](CO)NC(=O)[C@H](CO)NC(=O)[C@H](Cc1c[nH]cn1)NC(=O)[C@H](CCCNC(=N)N)NC(=O)[C@H](CC(C)C)NC(=O)[C@H](Cc1ccccc1)NC(=O)[C@H](CCC(=O)O)NC(=O)[C@H](C)NC(=O)[C@H](CC(C)C)NC(=O)[C@H](CCCNC(=N)N)NC(=O)[C@H](CCC(N)=O)NC(=O)[C@@H](NC(=O)[C@H](C)NC(=O)[C@@H]1CSSC[C@H](NC(=O)[C@H](CCCCN)NC(=O)CC[C@H](NC(=O)CCCCCCCCCCCCCCCCC(=O)O)C(=O)O)C(=O)N[C@@H](CC(N)=O)C(=O)N[C@@H]([C@@H](C)O)C(=O)N[C@@H](C)C(=O)N[C@@H]([C@@H](C)O)C(=O)N1)[C@@H](C)O)C(=O)N[C@@H](CC(C)C)C(=O)N1CCC[C@H]1C(=O)N1CCC[C@H]1C(=O)N[C@H](C(=O)N[C@@H](CC(N)=O)C(=O)N[C@H](C(=O)NCC(=O)N[C@@H](CO)C(=O)N[C@@H](Cc1c[nH]cn1)C(=O)N[C@H](C(=O)N[C@@H](Cc1ccc(O)cc1)C(N)=O)[C@@H](C)O)C(C)C)[C@@H](C)O [Example 61, N-alpha-[(S)-4-Carboxy-4-(17-carboxyheptadecanoylamino)butyryl]-[Glu14,Arg17,His35]-pramlintide] ({C18 diacid-γGlu}-KCNTATCATQRLAEFLRHSSNNFGPILPPTNVGSHTY-NH2; disulfide 2-7 (inferred))	100%	100%
CC[C@H](C)[C@H](NC(=O)[C@@H]1CCCN1C(=O)CNC(=O)[C@H](Cc1ccccc1)NC(=O)[C@H](CC(N)=O)NC(=O)[C@H](CC(N)=O)NC(=O)[C@H](CO)NC(=O)[C@H](CO)NC(=O)[C@H](Cc1c[nH]cn1)NC(=O)[C@H](CCCNC(=N)N)NC(=O)[C@H](CC(C)C)NC(=O)[C@H](Cc1ccccc1)NC(=O)[C@H](CCC(=O)O)NC(=O)[C@H](C)NC(=O)[C@H](CC(C)C)NC(=O)[C@H](CCCNC(=N)N)NC(=O)[C@H](CCC(N)=O)NC(=O)[C@@H](NC(=O)[C@H](C)NC(=O)[C@@H]1CSSC[C@H](NC(=O)[C@H](Cc2c[nH]cn2)NC(=O)CC[C@H](NC(=O)CCCCCCCCCCCCCCCCCCC(=O)O)C(=O)O)C(=O)N[C@@H](CC(N)=O)C(=O)N[C@@H]([C@@H](C)O)C(=O)N[C@@H](C)C(=O)N[C@@H]([C@@H](C)O)C(=O)N1)[C@@H](C)O)C(=O)N[C@@H](CC(C)C)C(=O)N1CCC[C@H]1C(=O)N1CCC[C@H]1C(=O)N[C@H](C(=O)N[C@@H](CC(N)=O)C(=O)N[C@H](C(=O)NCC(=O)N[C@@H](CO)C(=O)N[C@@H](CC(N)=O)C(=O)N[C@H](C(=O)N1CCC[C@H]1C(N)=O)[C@@H](C)O)C(C)C)[C@@H](C)O [Example 90, N-alpha-[(S)-4-Carboxy-4-(19-carboxynonadecanoylamino)butyryl]-[His1,Glu14,Arg17,Pro37]-pramlintide] ({C20 diacid-γGlu}-HCNTATCATQRLAEFLRHSSNNFGPILPPTNVGSNTP-NH2; disulfide 2-7 (inferred); C-terminus assumed)	93%	93%
CC[C@H](C)[C@H](NC(=O)[C@@H]1CCCN1C(=O)CNC(=O)[C@H](Cc1ccccc1)NC(=O)[C@H](CC(N)=O)NC(=O)[C@H](CC(N)=O)NC(=O)[C@H](CO)NC(=O)[C@H](CO)NC(=O)[C@H](Cc1c[nH]cn1)NC(=O)[C@H](Cc1c[nH]cn1)NC(=O)[C@H](CC(C)C)NC(=O)[C@H](Cc1ccccc1)NC(=O)[C@H](CCC(=O)O)NC(=O)[C@H](C)NC(=O)[C@H](CC(C)C)NC(=O)[C@H](CCCNC(=N)N)NC(=O)[C@H](CCC(N)=O)NC(=O)[C@@H](NC(=O)[C@H](C)NC(=O)[C@@H]1CSSC[C@H](NC(=O)[C@H](Cc2c[nH]cn2)NC(=O)[C@H](Cc2c[nH]cn2)NC(=O)[C@H](Cc2c[nH]cn2)NC(=O)CC[C@H](NC(=O)CCCCCCCCCCCCCCCCCCC(=O)O)C(=O)O)C(=O)N[C@@H](CC(N)=O)C(=O)N[C@@H]([C@@H](C)O)C(=O)N[C@@H](C)C(=O)N[C@@H]([C@@H](C)O)C(=O)N1)[C@@H](C)O)C(=O)N[C@@H](CC(C)C)C(=O)N1CCC[C@H]1C(=O)N1CCC[C@H]1C(=O)N[C@H](C(=O)N[C@@H](CC(N)=O)C(=O)N[C@H](C(=O)NCC(=O)N[C@@H](CO)C(=O)N[C@@H](CCCNC(=N)N)C(=O)N[C@H](C(=O)N[C@@H](Cc1ccc(O)cc1)C(N)=O)[C@@H](C)O)C(C)C)[C@@H](C)O [Example 21, N-alpha-[(S)-4-Carboxy-4-(19-carboxynonadecanoylamino)butyryl]-His-His-[His1,Glu14,His17,Arg35]-pramlintide] ({C20 diacid-γGlu}-HHHCNTATCATQRLAEFLHHSSNNFGPILPPTNVGSRTY-NH2; disulfide 4-9 (inferred))		89%
CC[C@H](C)[C@H](NC(=O)[C@@H]1CCCN1C(=O)CNC(=O)[C@H](Cc1ccccc1)NC(=O)[C@H](CC(N)=O)NC(=O)[C@H](CC(N)=O)NC(=O)[C@H](CO)NC(=O)[C@H](CO)NC(=O)[C@H](Cc1c[nH]cn1)NC(=O)[C@H](Cc1c[nH]cn1)NC(=O)[C@H](CC(C)C)NC(=O)[C@H](Cc1ccccc1)NC(=O)[C@H](CCC(=O)O)NC(=O)[C@H](C)NC(=O)[C@H](CC(C)C)NC(=O)[C@H](CCCNC(=N)N)NC(=O)[C@H](CCC(N)=O)NC(=O)[C@@H](NC(=O)[C@H](C)NC(=O)[C@@H]1CSSC[C@H](NC(=O)[C@H](CCCCN)NC(=O)[C@H](Cc2c[nH]cn2)NC(=O)CC[C@H](NC(=O)CCCCCCCCCCCCCCCCCCC(=O)O)C(=O)O)C(=O)N[C@@H](CC(N)=O)C(=O)N[C@@H]([C@@H](C)O)C(=O)N[C@@H](C)C(=O)N[C@@H]([C@@H](C)O)C(=O)N1)[C@@H](C)O)C(=O)N[C@@H](CC(C)C)C(=O)N1CCC[C@H]1C(=O)N1CCC[C@H]1C(=O)N[C@H](C(=O)N[C@@H](CC(N)=O)C(=O)N[C@H](C(=O)NCC(=O)N[C@@H](CO)C(=O)N[C@@H](Cc1c[nH]cn1)C(=O)N[C@H](C(=O)N[C@@H](Cc1ccc(O)cc1)C(N)=O)[C@@H](C)O)C(C)C)[C@@H](C)O [Example 66, N-alpha-[(S)-4-Carboxy-4-(19-carboxynonadecanoylamino)butyryl]-His-[Glu14,His17,His35]-pramlintide] ({C20 diacid-γGlu}-HKCNTATCATQRLAEFLHHSSNNFGPILPPTNVGSHTY-NH2; disulfide 3-8 (inferred); C-terminus assumed)	92%	92%
CC[C@H](C)[C@H](NC(=O)[C@@H]1CCCN1C(=O)CNC(=O)[C@H](Cc1ccccc1)NC(=O)[C@H](CC(N)=O)NC(=O)[C@H](CO)NC(=O)[C@H](CO)NC(=O)[C@H](CO)NC(=O)[C@H](Cc1c[nH]cn1)NC(=O)[C@H](CCCCNC(=O)COCCOCCNC(=O)COCCOCCNC(=O)CC[C@H](NC(=O)CCCCCCCCCCCCCCCCC(=O)O)C(=O)O)NC(=O)[C@H](CC(C)C)NC(=O)[C@H](Cc1ccccc1)NC(=O)[C@H](CCC(=O)O)NC(=O)[C@H](C)NC(=O)[C@H](CC(C)C)NC(=O)[C@H](CCCNC(=N)N)NC(=O)[C@H](CCC(N)=O)NC(=O)[C@@H](NC(=O)[C@H](C)NC(=O)[C@@H]1CSSC[C@H](NC(=O)[C@@H](N)CCCCN)C(=O)N[C@@H](CC(N)=O)C(=O)N[C@@H]([C@@H](C)O)C(=O)N[C@@H](C)C(=O)N[C@@H]([C@@H](C)O)C(=O)N1)[C@@H](C)O)C(=O)N[C@@H](CC(C)C)C(=O)N1CCC[C@H]1C(=O)N1CCC[C@H]1C(=O)N[C@H](C(=O)N[C@@H](CC(N)=O)C(=O)N[C@H](C(=O)NCC(=O)N[C@@H](CO)C(=O)N[C@@H](CCC(=O)O)C(=O)N[C@H](C(=O)N[C@@H](Cc1ccc(O)cc1)C(N)=O)[C@@H](C)O)C(C)C)[C@@H](C)O [Example 83, N-epsilon17-[2-(2-{2-[2-(2-{2-[(S)-4-Carboxy-4-(17-carboxyheptadecanoylamino)butyrylamino]ethoxy}ethoxy)acetylamino]ethoxy}ethoxy)acetyl]-[Glu14,Lys17,Ser21,Glu35]-pramlintide] (H-KCNTATCATQRLAEFLK([AEEA-AEEA-γGlu-C18 diacid])HSSSNFGPILPPTNVGSETY-NH2; disulfide 2-7 (inferred); N-terminus and C-terminus assumed)	97%	97%
CC[C@H](C)[C@H](NC(=O)[C@@H]1CCCN1C(=O)CNC(=O)[C@H](Cc1ccccc1)NC(=O)[C@H](CC(N)=O)NC(=O)[C@H](CC(N)=O)NC(=O)[C@H](CO)NC(=O)[C@H](CO)NC(=O)[C@H](Cc1c[nH]cn1)NC(=O)[C@H](CCCNC(=N)N)NC(=O)[C@H](CC(C)C)NC(=O)[C@H](Cc1ccccc1)NC(=O)[C@H](CCC(=O)O)NC(=O)[C@H](C)NC(=O)[C@H](CC(C)C)NC(=O)[C@H](CCCNC(=N)N)NC(=O)[C@H](CCC(N)=O)NC(=O)[C@@H](NC(=O)[C@H](C)NC(=O)[C@@H]1CSSC[C@H](NC(=O)[C@H](CCCCN)NC(=O)[C@H](Cc2c[nH]cn2)NC(=O)[C@H](Cc2c[nH]cn2)NC(=O)CC[C@H](NC(=O)CCCCCCCCCCCCCCCCCCC(=O)O)C(=O)O)C(=O)N[C@@H](CC(N)=O)C(=O)N[C@@H]([C@@H](C)O)C(=O)N[C@@H](C)C(=O)N[C@@H]([C@@H](C)O)C(=O)N1)[C@@H](C)O)C(=O)N[C@@H](CC(C)C)C(=O)N1CCC[C@H]1C(=O)N1CCC[C@H]1C(=O)N[C@H](C(=O)N[C@@H](CC(N)=O)C(=O)N[C@H](C(=O)NCC(=O)N[C@@H](CO)C(=O)N[C@@H](Cc1c[nH]cn1)C(=O)N[C@H](C(=O)N[C@@H](Cc1ccc(O)cc1)C(N)=O)[C@@H](C)O)C(C)C)[C@@H](C)O [Example 69, N-alpha-[(S)-4-Carboxy-4-(19-carboxynonadecanoylamino)butyryl]-His-His-[Glu14,Arg17,His35]-pramlintide] ({C20 diacid-γGlu}-HHKCNTATCATQRLAEFLRHSSNNFGPILPPTNVGSHTY-NH2; disulfide 4-9 (inferred))	94%	94%
